According to publication PMC5325423:
No constants are given. Whether binding was seen depends on the method and setting. In cells and extracts the contact can be indirect. Some entries that bind do so weakly or less than the wild type.

Target: NF-κB p65, human (human (endogenous in Caco-2)), Q04206
Assay: co-IP; Caco-2 cell lysates (50 mM HEPES pH 8.3, 420 mM KCl, 0.1% NP-40, 1 mM EDTA) immunoprecipitated with anti-CFTR, anti-β-catenin or anti-NF-κB p65 antibody and protein A/G beads, 4°C overnight; Western blot; IgG control
Settings: remark: other sources report otherwise

- binding: binds
B1: β-catenin, human, P35222 1-781 (protein)
chain: MATQADLMELDMAMEPDRKAAVSHWQQQSYLDSGIHSGATTTAPSLSGKGNPEEEDVDTSQVLYEWEQGFSQSFTQEQVADIDGQYAMTRAQRVRAAMFPETLDEGMQIPSTQFDAAHPTNVQRLAEPSQMLKHAVVNLINYQDDAELATRAIPELTKLLNDEDQVVVNKAAVMVHQLSKKEASRHAIMRSPQMVSAIVRTMQNTNDVETARCTAGTLHNLSHHREGLLAIFKSGGIPALVKMLGSPVDSVLFYAITTLHNLLLHQEGAKMAVRLAGGLQKMVALLNKTNVKFLAITTDCLQILAYGNQESKLIILASGGPQALVNIMRTYTYEKLLWTTSRVLKVLSVCSSNKPAIVEAGGMQALGLHLTDPSQRLVQNCLWTLRNLSDAATKQEGMEGLLGTLVQLLGSDDINVVTCAAGILSNLTCNNYKNKMMVCQVGGIEALVRTVLRAGDREDITEPAICALRHLTSRHQEAEMAQNAVRLHYGLPVVVKLLHPPSHWPLIKATVGLIRNLALCPANHAPLREQGAIPRLVQLLVRAHQDTQRRTSMGGTQQQFVEGVRMEEIVEGCTGALHILARDVHNRIVIRGLNTIPLFVQLLYSPIENIQRVAAGVLCELAQDKEAAEAIEAEGATAPLTELLHSRNEGVATYAAAVLFRMSEDKPQDYKKRLSVELTSSLFRTEPMAWNETADLGLDIGAQGEPLGYRQDDPSYRSFHSGGYGQDALGMDPMMEHEMGGHHPGADYPVDGLPDLGHAQDLMDGLPPGDSNQLAWFDTDL
